{"sequences": {"note": "Chains of the proteins cited; added tags and fusions are not shown.", "UniProt P17302": "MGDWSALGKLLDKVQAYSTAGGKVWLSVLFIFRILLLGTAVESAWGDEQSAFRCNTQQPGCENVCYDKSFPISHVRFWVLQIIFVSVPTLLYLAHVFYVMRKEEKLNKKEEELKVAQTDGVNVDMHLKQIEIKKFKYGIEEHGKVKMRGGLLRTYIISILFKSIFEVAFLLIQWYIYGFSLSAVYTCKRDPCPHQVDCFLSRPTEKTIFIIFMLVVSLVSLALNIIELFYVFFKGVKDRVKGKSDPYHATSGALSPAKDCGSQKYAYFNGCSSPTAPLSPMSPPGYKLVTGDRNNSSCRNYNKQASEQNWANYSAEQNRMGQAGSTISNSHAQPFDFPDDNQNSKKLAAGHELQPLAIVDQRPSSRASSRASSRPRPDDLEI", "UniProt O43823": "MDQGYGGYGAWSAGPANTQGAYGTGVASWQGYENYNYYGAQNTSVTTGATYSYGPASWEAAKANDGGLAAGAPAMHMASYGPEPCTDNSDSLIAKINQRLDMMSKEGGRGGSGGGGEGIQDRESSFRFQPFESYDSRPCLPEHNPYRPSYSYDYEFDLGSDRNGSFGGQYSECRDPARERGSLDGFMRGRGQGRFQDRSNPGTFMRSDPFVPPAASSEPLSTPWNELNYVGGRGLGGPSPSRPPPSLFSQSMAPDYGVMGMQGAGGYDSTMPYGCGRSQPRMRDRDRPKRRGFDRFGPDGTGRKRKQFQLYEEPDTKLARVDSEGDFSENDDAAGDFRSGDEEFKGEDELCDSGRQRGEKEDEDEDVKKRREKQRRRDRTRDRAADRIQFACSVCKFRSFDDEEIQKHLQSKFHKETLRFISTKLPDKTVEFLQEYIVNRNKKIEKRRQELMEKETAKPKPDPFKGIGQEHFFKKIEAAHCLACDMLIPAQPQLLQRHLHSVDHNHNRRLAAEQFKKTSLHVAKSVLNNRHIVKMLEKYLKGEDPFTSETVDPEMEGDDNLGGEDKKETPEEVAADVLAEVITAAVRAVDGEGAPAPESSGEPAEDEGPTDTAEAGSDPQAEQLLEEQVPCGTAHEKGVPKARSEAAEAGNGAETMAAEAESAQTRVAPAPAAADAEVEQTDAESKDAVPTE"}, "source": "paper PMC4754773", "key": {"[1]": {"target": "connexin 43 (human (endogenous in A549 and L-O2)) (UniProt P17302)", "test": "condition: only cytoplasmic fraction without nuclear membrane proteins (Cytoplasm2); co-IP; A549 fraction Cytoplasm2 (made without CEB-B solution, no nuclear membrane proteins); 300 ug precipitated with 3 ug anti-Cx43 antibody, blot with anti-AKAP95 and anti-Cx43"}, "[2]": {"target": "connexin 43 (human (endogenous in A549 and L-O2)) (UniProt P17302)", "test": "proximity ligation; fixed A549 cells, antibodies against Cx43 and AKAP8, Duolink PLA probes, confocal microscopy; lamin B1 marks the nuclear membrane; negative control with PBS instead of the Cx43 antibody"}, "[3]": {"target": "connexin 43 (human (endogenous in A549 and L-O2)) (UniProt P17302)", "test": "co-IP; total protein of A549 cells (control, 20 uM H89 or 20 uM Forskolin for 24 h; lysate also with or without alkaline phosphatase at 37 C for 1 h); precipitated with anti-Cx43 antibody, protein A/G agarose, blot with anti-Cx43 and anti-AKAP95"}, "[4]": {"target": "connexin 43 (human (endogenous in A549 and L-O2)) (UniProt P17302)", "test": "co-IP; A549 fractions Cytoplasm1 (with nuclear membrane proteins), Nucleus1 and Nucleus2; 300 ug of each precipitated with 3 ug anti-Cx43 antibody, blot with anti-AKAP95 and anti-Cx43"}, "[5]": {"target": "connexin 43 (human (endogenous in A549 and L-O2)) (UniProt P17302)", "test": "co-IP; nuclear and cytoplasmic fractions of A549 and L-O2 cells treated 24 h with L-mimosine (G1), aphidicolin (S), nocodazole (G2) or colchicine (M); precipitated with anti-Cx43 antibody, blot with anti-AKAP95"}}, "note": "No constants are given. Whether binding was seen depends on the method and setting. Binding seen in cells or lysates may run through a third protein. Some entries that bind do so weakly or less than the wild type."}
{"substance": "A-kinase anchoring protein 95 (from UniProt O43823 1-692)", "values": [{"measurement": "binding", "setting": "[1]", "result": "no binding"}, {"measurement": "binding", "setting": "[2]", "result": "binds"}, {"measurement": "binding", "setting": "[3]", "result": "binds"}, {"measurement": "binding", "setting": "[4]", "result": "binds"}, {"measurement": "binding", "setting": "[5]", "result": "binds"}]}
